For 6 molecules, binding results are on record in paper PMC5120144.

Chains of the proteins cited; added tags and fusions are not shown. Residues count along the entry.
UniProt Q4WZB4, residues 19-664: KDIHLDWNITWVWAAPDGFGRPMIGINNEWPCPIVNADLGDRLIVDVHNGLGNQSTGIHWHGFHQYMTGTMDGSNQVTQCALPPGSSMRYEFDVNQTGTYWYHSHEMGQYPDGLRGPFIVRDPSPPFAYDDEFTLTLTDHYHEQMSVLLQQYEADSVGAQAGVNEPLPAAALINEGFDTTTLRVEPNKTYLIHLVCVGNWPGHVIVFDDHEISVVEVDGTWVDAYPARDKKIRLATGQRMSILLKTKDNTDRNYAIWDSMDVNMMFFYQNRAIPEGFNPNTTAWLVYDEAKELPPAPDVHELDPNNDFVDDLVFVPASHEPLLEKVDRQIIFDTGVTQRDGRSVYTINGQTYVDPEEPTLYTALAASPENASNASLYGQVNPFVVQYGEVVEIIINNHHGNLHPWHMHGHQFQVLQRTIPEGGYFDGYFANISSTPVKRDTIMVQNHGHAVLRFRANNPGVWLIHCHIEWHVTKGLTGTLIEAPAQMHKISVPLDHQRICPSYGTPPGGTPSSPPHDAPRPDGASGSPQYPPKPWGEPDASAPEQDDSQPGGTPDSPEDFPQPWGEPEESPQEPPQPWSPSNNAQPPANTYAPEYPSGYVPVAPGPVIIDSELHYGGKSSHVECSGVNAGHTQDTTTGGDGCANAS
UniProt E9RBR0, residues 18-587: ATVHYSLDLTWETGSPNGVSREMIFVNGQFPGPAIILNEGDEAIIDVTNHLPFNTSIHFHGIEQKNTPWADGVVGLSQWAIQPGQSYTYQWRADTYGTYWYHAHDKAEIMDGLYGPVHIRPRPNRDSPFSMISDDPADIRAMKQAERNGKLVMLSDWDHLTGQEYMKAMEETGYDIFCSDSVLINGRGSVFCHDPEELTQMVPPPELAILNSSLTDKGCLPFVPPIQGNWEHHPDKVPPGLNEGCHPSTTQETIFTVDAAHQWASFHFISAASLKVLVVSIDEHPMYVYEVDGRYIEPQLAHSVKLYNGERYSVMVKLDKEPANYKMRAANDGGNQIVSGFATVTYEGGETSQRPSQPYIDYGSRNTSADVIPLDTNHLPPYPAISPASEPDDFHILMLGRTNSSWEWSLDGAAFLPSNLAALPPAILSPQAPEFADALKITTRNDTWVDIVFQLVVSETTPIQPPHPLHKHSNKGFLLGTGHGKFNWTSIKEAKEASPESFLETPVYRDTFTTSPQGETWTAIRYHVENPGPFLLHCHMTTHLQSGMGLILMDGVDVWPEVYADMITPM
UniProt E9QUT3: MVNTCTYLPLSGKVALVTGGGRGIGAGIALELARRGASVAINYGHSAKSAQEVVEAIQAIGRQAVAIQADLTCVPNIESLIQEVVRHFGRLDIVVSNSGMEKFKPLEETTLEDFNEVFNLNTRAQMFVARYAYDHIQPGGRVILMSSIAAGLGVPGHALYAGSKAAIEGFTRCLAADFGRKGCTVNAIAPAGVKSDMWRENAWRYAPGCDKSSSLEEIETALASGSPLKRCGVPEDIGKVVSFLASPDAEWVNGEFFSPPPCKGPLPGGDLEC
UniProt Q4WZB3: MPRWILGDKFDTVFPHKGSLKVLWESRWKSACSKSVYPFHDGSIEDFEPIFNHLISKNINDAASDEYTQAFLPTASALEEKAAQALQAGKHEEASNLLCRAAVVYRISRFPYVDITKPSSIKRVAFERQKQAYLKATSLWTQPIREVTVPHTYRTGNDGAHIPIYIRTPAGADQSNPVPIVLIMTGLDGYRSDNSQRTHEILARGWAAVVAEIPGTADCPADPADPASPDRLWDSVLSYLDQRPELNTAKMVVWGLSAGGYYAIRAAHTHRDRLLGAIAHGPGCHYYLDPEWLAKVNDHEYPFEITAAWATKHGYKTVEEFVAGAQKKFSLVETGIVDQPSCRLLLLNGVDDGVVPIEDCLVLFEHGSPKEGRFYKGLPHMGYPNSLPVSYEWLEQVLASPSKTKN

These are yes or no findings as the source states them, for the method shown. For some of these results: In cells and extracts the contact can be indirect. Some binding calls cover weakened binding; strength is not graded here. For some of these results: Tags and fused reporters may be left off the sequences shown.

Assay [1] deals with Abr1-GFP (Aspergillus fumigatus) (UniProt Q4WZB4). Kind of assay: SEC; total proteins from vegetative hyphae of tef1-promoter GFP strains (each enzyme expressed alone); Superdex 200 10/300 GL, 25 mM HEPES pH 7.5, 300 mM NaCl, 2 mM EDTA, 1% DDM, 1% NP-40; GFP fluorescence of each fraction. (In general: Size exclusion chromatography separates by hydrodynamic size, large species first.)

Assay [2] addresses Abr2-GFP (Aspergillus fumigatus) (UniProt E9RBR0). The assay is described as above.
In assay [3] the target is Arp2-GFP (Aspergillus fumigatus) (UniProt E9QUT3). Described as above.
In assay [4] the target is Ayg1-FLAG (Aspergillus fumigatus) (UniProt Q4WZB3). Kind of assay: co-IP; total proteins from conidia; beads coated with anti-FLAG antibodies, Western blots probed with anti-GFP antibodies; tagged proteins under their native promoters. (In general: In western blotting, separated proteins are transferred to a membrane and probed.)
Assay [5] deals with Abr1-FLAG (Aspergillus fumigatus) (UniProt Q4WZB4). The assay is described as above.
The target of assay [6] is Ayg1-GFP (Aspergillus fumigatus) (UniProt Q4WZB3). The assay can be described thus: SEC; total proteins from vegetative hyphae of tef1-promoter GFP strains (each enzyme expressed alone); Superdex 200 10/300 GL, 25 mM HEPES pH 7.5, 300 mM NaCl, 2 mM EDTA, 1% DDM, 1% NP-40; GFP fluorescence of each fraction.
Assay [7] concerns the target T1, Arp1-GFP (Aspergillus fumigatus), O14434.
T1 chain: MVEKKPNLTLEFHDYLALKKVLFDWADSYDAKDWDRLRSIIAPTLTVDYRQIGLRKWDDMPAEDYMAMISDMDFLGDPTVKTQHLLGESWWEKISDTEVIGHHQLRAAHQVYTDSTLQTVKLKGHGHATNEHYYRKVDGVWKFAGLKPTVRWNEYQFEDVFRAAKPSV
Described as above. Conditions: remark: other sources report otherwise.

On to “Abr1-GFP (from UniProt Q4WZB4 19-664) (enzyme)”, for which the binding entry in assay [1] is given as “no binding”. Regarding “Abr2-GFP (from UniProt E9RBR0 18-587) (enzyme)”, the binding entry in assay [2] is “no binding”. In the case of “Arp2-GFP (from UniProt E9QUT3 1-273) (enzyme)”, the binding result in assay [3] is on record as “no binding”; in assay [4], “binds”; in assay [5] it was “binds”. As for “Ayg1-GFP (from UniProt Q4WZB3 1-406) (enzyme)”, the results for the binding entry in assay [6] and in assay [5] were “no binding” and “binds”, respectively.

B1: Arp1-GFP (enzyme, UniProt O14434 1-168)
chain: T1 chain
Regarding B1, the binding result in assay [4] and in assay [5] was “binds” throughout.

B2: Arp1-GFP, O14434 1-168 (enzyme)
chain: T1 chain
For B2, the binding result in assay [7] was “no binding”.
